# Where a chain is given by its changes, count along the chain named. In names and notes the source's numbering stands. These are yes or no findings as the source states them, for the method shown. Binding seen in cells or lysates may run through a third protein. Some binding calls cover weakened binding; strength is not graded here.
# B1: Scc2 D369C (natural protein, S. cerevisiae, UniProt Q04002 1-1493, looked up)
# chain: MSYPGKDKNIPGRIIEALEDLPLSYLVPKDGLAALVNAPMRVSLPFDKTIFTSADDGRDVNINVLGTANSTTSSIKNEAEKERLVFKRPSNFTSSANSVDYVPTNFLEGLSPLAQSVLSTHKGLNDSINIEKKSEIVSRPEAKHKLESVTSNAGNLSFNDNSSNKKTKTSTGVTMTQANLAEQYLNDLKNILDIVGFDQNSAEIGNIEYWLQLPNKKFVLTTNCLTKLQMTIKNITDNPQLSNSIEITWLLRLLDVMVCNIKFSKSSLKMGLDDSMLRYIALLSTIVLFNIFLLGKNDSNLHRESYIMEPVNFLSDLIESLKILTIEYGSLKIEFDTFQEALELLPKYIRNGPFLDDNVTAKLVYIFSCLLMNNDIEATTNIQFQSFWDNVKRISSDILVSLFGSFDQQRGFIIEELLSHIEKLPTKRIQKKLRKVGNQNIYITDFTFTLMSMLENINCYSFCNQMKDIAPENIDLLKNEYKKQEEFLFNIVEHINDTILERFFKNPSALRYVIDNFVQDLLLLISSPQWPVTEKILSSLLKRLLSVYSPSMQVSANIETICLQLIGNIGSTIFDIKCSTRDHEDNNLIKMINYPETLPHFFKSFEECIAYNETIKCRRSATRFLWNLRLGTILILEEYTKDAKEQIITVDNELKKILEQIKDGGLGPELENREADFSTIKLDYFSILHAFELLNLYDPYLKLILSLLAKDKIKLRSTAIKCLSMLASKDKVILSNPMVKETIHRRLNDSSASVKDAILDLVSINSSYFEFYQQINNNYNDDSIMVRKHVLRINEKMYDETNDIVTKVYVIARILMKIEDEEDNIIDMARLILLNRWILKVHEVLDQPEKLKEISSSVLLVMSRVAIMNEKCSQLFDLFLNFYLLNKEAHSKEAYDKITHVLTILTDFLVQKIVELNSDDTNEKNSIVDKQNFLNLLAKFADSTVSFLTKDHITALYPYMVSDEKSDFHYYILQVFRCTFEKLANFKQKFLYDLETTLLSRLPKMNVREIDEAMPLIWSVATHRHDTARVAKACSSCLSHLHPYINKANNEEAAIVVDGKLQRLIYLSTGFARFCFPKPSNDKIAFLQEGETLYEHITKCLLVLSKDKITHVIRRVAVKNLTKLCGNHPKLFNSRHVLHLLDKEFQSDQLDIKLVILESLYDLFLLEERKSVRNTGVNSTLSSNSILKKKLLKTNRVEFANDGVCSALATRFLDNILQLCLLRDLKNSLVAIRLLKLILKFGYTNPSHSIPTVIALFASTSQYIRHVAYELLEDLFEKYETLVFSSLSRGVTKAIHYSIHTDEKYYYKHDHFLSLLEKLCGTGKKNGPKFFKVLKRIMQSYLDDITDLTSTNSSVQKSIFVLCTNISNITFVSQYDLVSLLKTIDLTTDRLKEVIMDEIGDNVSSLSVSEEKLSGIILIQLSLQDLGTYLLHLYGLRDDVLLLDIVEESELKNKQLPAKKPDISKFSAQLENIEQYSSNGKLLTYFRKHVKDT
# notes: Scc2, S. cerevisiae; source: S. cerevisiae W303, in vivo, whole-cell extract
# B2: Scc2 D369C E819C (protein, UniProt Q04002 1-1493)
# chain: B1 chain with E819C
# How the values were obtained:
# [1] = target: T1, Smc3 K1004C (S. cerevisiae) (UniProt P47037); assay: cross-linking; in vivo BMOE cross-link of cysteine pairs in exponentially grown yeast cells (on ice, 6 min); Scc1-PK immunoprecipitated, western blot
# T1 sequence: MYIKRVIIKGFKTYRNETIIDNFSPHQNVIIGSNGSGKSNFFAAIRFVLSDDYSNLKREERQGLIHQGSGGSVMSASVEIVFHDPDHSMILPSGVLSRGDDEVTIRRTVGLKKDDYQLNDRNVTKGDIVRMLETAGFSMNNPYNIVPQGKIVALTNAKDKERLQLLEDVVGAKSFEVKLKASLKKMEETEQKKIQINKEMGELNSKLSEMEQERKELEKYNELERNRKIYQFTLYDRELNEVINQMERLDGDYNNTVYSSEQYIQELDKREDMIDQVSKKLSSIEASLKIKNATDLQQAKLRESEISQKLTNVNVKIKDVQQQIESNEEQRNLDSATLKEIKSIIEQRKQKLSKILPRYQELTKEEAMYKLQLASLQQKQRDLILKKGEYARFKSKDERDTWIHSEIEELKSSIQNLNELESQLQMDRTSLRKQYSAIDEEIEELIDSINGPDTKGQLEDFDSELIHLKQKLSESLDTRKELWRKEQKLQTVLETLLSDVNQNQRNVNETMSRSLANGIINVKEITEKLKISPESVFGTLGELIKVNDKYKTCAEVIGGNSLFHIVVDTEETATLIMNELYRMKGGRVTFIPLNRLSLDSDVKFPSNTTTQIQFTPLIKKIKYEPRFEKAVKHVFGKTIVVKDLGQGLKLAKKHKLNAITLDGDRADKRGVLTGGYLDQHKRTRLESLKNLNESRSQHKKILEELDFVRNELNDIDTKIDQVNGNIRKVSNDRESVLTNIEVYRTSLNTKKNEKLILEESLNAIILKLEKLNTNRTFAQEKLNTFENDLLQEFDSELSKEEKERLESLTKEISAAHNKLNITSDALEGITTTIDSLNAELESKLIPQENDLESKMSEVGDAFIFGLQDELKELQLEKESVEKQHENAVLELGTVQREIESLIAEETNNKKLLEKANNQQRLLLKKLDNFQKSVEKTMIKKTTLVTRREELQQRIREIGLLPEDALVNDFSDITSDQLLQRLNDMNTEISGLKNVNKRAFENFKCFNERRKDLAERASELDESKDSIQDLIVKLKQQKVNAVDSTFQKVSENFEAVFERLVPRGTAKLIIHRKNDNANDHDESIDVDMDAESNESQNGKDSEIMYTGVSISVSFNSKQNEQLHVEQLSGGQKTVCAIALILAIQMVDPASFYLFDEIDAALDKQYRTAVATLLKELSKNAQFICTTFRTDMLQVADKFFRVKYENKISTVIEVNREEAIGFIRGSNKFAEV
# [2] = target: T1, Smc3 K1004C (S. cerevisiae); assay: cross-linking; in vivo BMOE cross-link of cysteine pairs in yeast cells arrested in late G1 by non-degradable Sic1(9m); Scc1-PK immunoprecipitated, western blot, band intensities quantified
# [3] = target: T2, Scc1-PK (S. cerevisiae) (UniProt Q12158); assay: co-IP; Scc1-PK immunoprecipitated with anti-PK from whole-cell extracts of cross-linker-treated yeast cells (exponentially grown or late G1 arrested); co-precipitated Smc3-HA, Smc1-Myc or Scc2-FLAG detected by western blot
# T2 sequence: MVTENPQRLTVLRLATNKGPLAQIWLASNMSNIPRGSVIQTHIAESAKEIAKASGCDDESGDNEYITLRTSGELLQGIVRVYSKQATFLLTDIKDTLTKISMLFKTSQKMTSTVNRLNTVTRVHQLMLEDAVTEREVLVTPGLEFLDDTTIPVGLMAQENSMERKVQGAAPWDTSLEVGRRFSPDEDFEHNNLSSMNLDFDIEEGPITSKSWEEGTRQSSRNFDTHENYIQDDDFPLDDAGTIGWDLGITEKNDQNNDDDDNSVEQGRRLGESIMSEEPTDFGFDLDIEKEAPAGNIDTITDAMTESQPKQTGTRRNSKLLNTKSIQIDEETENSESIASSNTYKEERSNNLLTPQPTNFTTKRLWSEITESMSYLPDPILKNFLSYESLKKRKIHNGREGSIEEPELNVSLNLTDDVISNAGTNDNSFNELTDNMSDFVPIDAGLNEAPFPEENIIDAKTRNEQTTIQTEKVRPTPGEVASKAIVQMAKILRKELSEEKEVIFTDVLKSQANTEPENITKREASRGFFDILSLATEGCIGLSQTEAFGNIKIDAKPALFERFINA
# [4] = target: T3, Smc3 S72C K1004C (S. cerevisiae) (UniProt P47037); assay: cross-linking; in vivo BMOE cross-link of cysteine pairs in yeast cells arrested in late G1 by non-degradable Sic1(9m); Scc1-PK immunoprecipitated, western blot, band intensities quantified
# T3 sequence: T1 sequence with S72C
# [5] = target: T4, Smc3^E1155Q S72C K1004C (S. cerevisiae) (UniProt P47037); assay: as above
# T4 sequence: T1 sequence with S72C, E1155Q
Binder,binding [1],binding [2],binding [3],binding [4],binding [5]
B1,binds,binds,–,–,–
B2,–,–,binds,binds,binds
